# Results published in the supplement of paper PMC3334620.
# Whole data set: some 33,000 sequences, median “E-score (-0.5 to 0.5)” near -0.053, cut for the highest 2% near 0.37. This is one part of the list.
# Biological target: Hap1 (UniProt P0CE41)
# Assay: PBM E-score (8-mer binding enrichment) (E-score (-0.5 to 0.5)); higher = stronger / more preferred TF binding; most listed sequences are background and not binding sites
# Conditions: protein concentration: 200 nM; construct: GST-DNA-binding domain
# How it was run: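 Universal all-10-mer Agilent arrays, fresh or stripped once, were converted to double-stranded form by primer extension. GST-tagged yeast transcription factors from PURExpress in vitro transcription/translation, full-length or DNA-binding domain only, were applied at about 100-200 nM and detected with fluorescent anti-GST. After masliner normalisation, the Universal PBM Analysis Suite scored each ungapped eight-base word together with its reverse complement by E-score.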
# Sequence of UniProt P0CE41 (P0CE41 whole entry): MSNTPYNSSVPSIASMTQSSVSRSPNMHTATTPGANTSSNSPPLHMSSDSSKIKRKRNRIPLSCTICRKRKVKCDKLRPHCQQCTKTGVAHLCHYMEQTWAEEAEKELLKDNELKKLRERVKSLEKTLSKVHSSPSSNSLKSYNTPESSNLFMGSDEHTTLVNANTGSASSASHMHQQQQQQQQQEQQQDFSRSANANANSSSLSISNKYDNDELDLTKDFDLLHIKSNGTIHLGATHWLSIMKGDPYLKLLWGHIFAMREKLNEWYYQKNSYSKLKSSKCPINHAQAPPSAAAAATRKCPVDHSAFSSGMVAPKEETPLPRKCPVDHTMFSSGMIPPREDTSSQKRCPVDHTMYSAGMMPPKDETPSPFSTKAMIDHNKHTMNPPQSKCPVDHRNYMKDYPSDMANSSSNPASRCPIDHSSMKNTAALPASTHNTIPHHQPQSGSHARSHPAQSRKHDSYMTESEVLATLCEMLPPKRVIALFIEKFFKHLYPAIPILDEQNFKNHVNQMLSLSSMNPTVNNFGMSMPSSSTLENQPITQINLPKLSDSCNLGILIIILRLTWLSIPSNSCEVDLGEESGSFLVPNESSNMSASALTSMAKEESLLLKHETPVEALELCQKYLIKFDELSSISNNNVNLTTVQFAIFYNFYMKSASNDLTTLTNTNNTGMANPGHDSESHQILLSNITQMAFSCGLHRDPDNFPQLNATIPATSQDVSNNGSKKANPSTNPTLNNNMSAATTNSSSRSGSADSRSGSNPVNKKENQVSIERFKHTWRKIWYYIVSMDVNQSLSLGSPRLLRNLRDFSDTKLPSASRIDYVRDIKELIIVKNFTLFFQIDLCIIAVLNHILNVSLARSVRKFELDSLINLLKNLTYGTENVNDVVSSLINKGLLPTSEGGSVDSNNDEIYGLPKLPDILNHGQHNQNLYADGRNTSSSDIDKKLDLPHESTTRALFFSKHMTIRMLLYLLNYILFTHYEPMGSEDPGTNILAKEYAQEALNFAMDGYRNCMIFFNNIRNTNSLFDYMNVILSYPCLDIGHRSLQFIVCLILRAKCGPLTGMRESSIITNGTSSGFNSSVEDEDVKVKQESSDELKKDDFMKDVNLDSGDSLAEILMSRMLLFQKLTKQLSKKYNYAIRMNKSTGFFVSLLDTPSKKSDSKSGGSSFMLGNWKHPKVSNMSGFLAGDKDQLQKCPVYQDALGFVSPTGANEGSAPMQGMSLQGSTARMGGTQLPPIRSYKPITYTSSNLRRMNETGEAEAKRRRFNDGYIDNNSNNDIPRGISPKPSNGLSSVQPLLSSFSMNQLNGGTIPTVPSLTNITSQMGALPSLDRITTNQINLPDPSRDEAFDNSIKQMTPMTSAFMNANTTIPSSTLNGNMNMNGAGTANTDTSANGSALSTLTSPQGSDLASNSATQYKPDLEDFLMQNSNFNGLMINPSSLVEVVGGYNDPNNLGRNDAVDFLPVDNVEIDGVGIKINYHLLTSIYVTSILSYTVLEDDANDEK
row,Sequence,PBM E-score
1,ACGCATCG,0.0393
2,GAACGTAC,-0.147
3,ATAACTCA,-0.0521
4,CTCTTTAA,-0.192
5,ACTCTTGA,-0.281
6,GGGCATAA,0.163
7,TCAATTAA,-0.0848
8,GGAGCGAC,0.106
9,CGTTGGGC,0.0102
10,GAACTCTA,-0.125
11,AGGCTGAT,-0.287
12,CCAAAAAA,-0.0319
13,GCTCCCCC,-0.0262
14,AATATCCC,0.109
15,ATTAGGGC,-0.0938
16,CAAATGCG,-0.0421
17,ATTGAACC,-0.0801
18,AGCCGCAC,0.101
19,AACGTCAG,-0.182
20,CATCGTTC,-0.179
21,AACGCTGT,0.0217
22,TGAGGGCA,-0.102
23,GGGTCAAC,0.0925
24,GGGTTCGA,-0.06
25,ACATCTAC,-0.0567

row,Sequence,PBM E-score
1,GCAGTTAA,0.136
2,TCCTACCA,-0.195
3,ATTCCTTG,-0.0522
4,GAAGGAAA,-0.167
5,CTAGCCTA,0.0474
6,CGCCCTTC,0.109
7,CCTGACGA,-0.23
8,AGGACGGG,-0.0193
9,TAGCGTAA,-0.00108
10,CTCTGCGC,0.02
11,AGTATTGC,-0.0662
12,GGTACAAC,-0.0316
13,GAATTTCA,-0.117
14,CTCATTGC,-0.113
15,CCAGGCAC,-0.107
16,CCCTCTCG,-0.0046
17,CAACCAAC,-0.1
18,TTCGGAAA,0.389
19,ATTAGATA,-0.203
20,AGCCTCCA,-0.219
21,GAACTTCA,-0.0792
22,GGTGTCAA,-0.0329
23,AGTGCCGA,0.273
24,GAGATAGC,0.0742
25,CAGAGTTC,-0.0889

row,Sequence,PBM E-score
1,CCCGCTAG,0.204
2,CGCCTCAC,-0.0389
3,GCTAAAAC,0.0818
4,AACAATAT,0.112
5,CACCGGAG,0.341
6,AGGGGAGC,-0.0321
7,ACAAACCC,0.127
8,GGACGGCC,0.227
9,CTAATTAA,-0.22
10,CTTAATGC,0.0397
11,AAACAATT,-0.068
12,AAACGGTG,-0.173
13,TACGCCCA,-0.0723
14,CGGTATAG,0.202
15,CATCCTTC,-0.15
16,AACCACTT,-0.118
17,AGCTTCCC,-0.0873
18,TGCTACAA,-0.0752
19,AACCTGGA,-0.219
20,CCCCTCAG,-0.14
21,CATACAAC,-0.18
22,CCGGATTC,0.323
23,CTCCTACA,-0.267
24,ATGCTCAC,-0.164
25,CCTTCGCC,0.0382

row,Sequence,PBM E-score
1,ATTCGCGG,0.246
2,ACATCTCC,0.283
3,AAGTCTAA,-0.1
4,CAATTTAG,-0.131
5,TAGGTAAA,-0.131
6,CGGGTCGC,0.261
7,TGTAGAAA,-0.134
8,TCTCATAA,-0.237
9,AATCATAA,-0.225
10,TAAGTGCA,-0.025
11,ATGTGGTC,-0.139
12,CCGCTACC,0.264
13,AGACACTA,0.0157
14,GATAGGGA,-0.00736
15,ACCCAAAT,-0.0876
16,GGATGCTA,-0.0224
17,ATGTCCCA,-0.0835
18,ATTCCAAG,-0.177
19,TACCTGCA,-0.0929
20,CACTCGGA,0.277
21,ACCCCGCT,0.244
22,GATAGATC,0.0249
23,GAGAAAGC,0.0166
24,CCAGTTGA,-0.116
25,ACTCCTGA,-0.212

row,Sequence,PBM E-score
1,AACCACGT,-0.286
2,AGTACACG,-0.0406
3,AGAAACGG,0.0978
4,GCTGATTA,-0.00254
5,GACGCGTA,-0.114
6,GGTAACAA,0.13
7,CATACTAC,-0.0704
8,AGTCGCCG,0.129
9,AAGTTGTC,0.0657
10,CAGCTCGA,-0.0955
11,GAAATCAC,0.103
12,AAAATTCT,-0.108
13,CTGTTCCC,-0.0303
14,CGGGGATC,0.335
15,GCGTTTCA,-0.162
16,GGTGTCCA,-0.0962
17,ACTGAAAG,-0.0734
18,CCCTTGGA,-0.152
19,CCAGCGTA,-0.0298
20,ATTACACC,0.00924
21,CTACGCAC,-0.0643
22,CGTTACAC,0.0416
23,AGCTATGC,-0.337
24,CAATGGCA,-0.0882
25,CATCTGAC,-0.147

row,Sequence,PBM E-score
1,CTACTTAC,-0.149
2,AATTCTGT,-0.0282
3,GCCGAACC,0.322
4,GGTGGGAC,-0.0953
5,AACAATTA,0.0343
6,AACTATCC,0.113
7,CGATCGAA,0.0229
8,ATGGCGCA,0.035
9,AATCCGCG,0.244
10,ACTATTTA,0.11
11,CCTACCCG,0.106
12,GAGTAGTA,-0.0277
13,CCAGTACC,0.0753
14,CACATAGC,-0.092
15,AGCCGGGG,0.268
16,AGTATTCC,0.161
17,GCTCCGAA,0.367
18,CAGCACTA,-0.234
19,AAGTATTG,-0.136
20,GGAGCCGA,0.276
21,CCCAGTTC,0.0773
22,TGTCCACA,-0.159
23,TATTTGCA,-0.236
24,ACACTGAT,-0.332
25,GTGTTTGA,-0.238

row,Sequence,PBM E-score
1,AAGCATTG,-0.304
2,GAACGGAC,0.203
3,AGCCTTAA,0.16
4,AGGAGATC,-0.098
5,AACAAGTG,-0.293
6,AAGGGTAC,-0.173
7,GTGGAGCA,-0.125
8,AATCTTCA,-0.0413
9,CGACCCAC,0.112
10,AGGAAGCC,0.00309
11,GAAGCTTC,0.00491
12,GAATTCAA,0.103
13,CCGAGGTA,0.28
14,GGCATCCA,-0.14
15,GGTTAGCA,-0.0201
16,AAAAATGC,0.107
17,CAAAGTCA,-0.198
18,AGATGCAC,-0.0371
19,CTATTCGA,-0.292
20,CTTGCCGC,0.0486
21,ATCCACCC,0.0404
22,ACCTGGCG,-0.00541
